# Data published in PubChem BioAssay AID686970 (National Center for Advancing Translational Sciences (NCATS), 2013).
# The campaign covered roughly 360,000 compounds. About 6,000 (1.7%) were called active. The shares of active, inactive and inconclusive entries below differ from those in the screen. Calls come from the whole dose curve; as a rule, active = well fitted cell-killing curve with a large enough effect; inconclusive = small, poorly fitted or top-dose-only effect, or effect the other way; inactive = flat fitted curve, though single readings scatter. No potency is given beside an inconclusive call; the fits are too rough.
# Test: qHTS for induction of synthetic lethality in tumor cells producing 2HG: qHTS for the HT-1080-NT fibrosarcoma cell line;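 note: NT is the 2HG producing partner of a matched IDH1 knockdown line; nearly all actives have a fitted effect of over 55% in size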;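 for activity, negative = less viability: 0% = DMSO-treated cells and -100% = media-only wells without cells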
# Conditions: HT-1080-NT fibrosarcoma viability, CellTiter-Glo ATP luminescence, 48 h; activity, negative = less viability: at 46.1 µM (top of the series) unless noted
# Outline: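 Read-out is CellTiter-Glo luminescence after 10 minutes at room temperature, following 48 hours' compound treatment of HT-1080-NT cells (750 cells/well, RPMI, 5% FBS, 37 degrees C).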
# Potency is the fitted concentration of half-maximal effect; tags give direction and shape of the fitted curve.
SMILES,Potency,"activity, negative = less viability"
Cc1cc(C)c(O)c(NC(=S)NC(=O)Cc2ccccc2)c1,"inconclusive [cytotoxic, single point]",
COc1cccc(N=Nc2c(N)[nH]n3c(=O)cc(-c4ccccc4)nc23)c1,"inconclusive [cytotoxic, single point]",
Cc1cc(C(F)(F)F)c2c(N)c(C(=O)NC3CC3)sc2n1,"inconclusive [rising, partial curve, poor fit]",
Cc1ccsc1C(=O)NNC(=S)NCC(C)C,"inconclusive [cytotoxic, single point]",
O=C(CSc1ccccn1)N1CCNC1=O,inactive,
CCN1C(=O)C(CC(=O)Nc2ccccc2)S/C1=N\c1ccccn1 (stereo unspecified),"inconclusive [cytotoxic, single point]",
Cc1ccc(NC(=O)c2ccc(S(=O)(=O)N3CCC(C)CC3)cc2)nc1,"inconclusive [cytotoxic, partial curve]",
Cc1ccc(-c2noc(CN3CCOCC3)n2)cc1,,inconclusive: 32.6%
COc1cc2c(cc1OC)CN(c1ccc(C(F)(F)F)cn1)CC2,"inconclusive [cytotoxic, single point]",
CCOC1=CC2=C(C(=O)C(Cl)=CC2=O)[C@@H]2CN(S(=O)(=O)c3ccc(C)cc3)[C@@H](c3ccccc3)[C@H]12,"inconclusive [cytotoxic, single point]",
COc1ccc(C(=O)Nn2c(SCC(=O)NCc3ccco3)nc3ccccc3c2=O)cc1,"inconclusive [cytotoxic, single point]",
CCOC(=O)NC1(NCc2ccccc2)Oc2ccccc2O1,"inconclusive [cytotoxic, single point]",
COc1cccc(N2CCN(CC(=O)Nc3nc4c(s3)CC(C)CC4)CC2)c1 (stereo unspecified),inactive,
COc1cc(C2C3=C(COC3=O)Oc3cc4c(cc32)OCO4)cc(OC)c1O (stereo unspecified),active: 0.461 µM,
O=C(Nc1ccnn1C1CCN(CCCC2CCCC2)CC1)c1ccccc1,"inconclusive [cytotoxic, single point]",
CCc1ccc(CCC(=O)Nc2ccc(C)cc2C)o1,"inconclusive [cytotoxic, single point]",
Cc1ccc(NC(=O)c2cc(S(=O)(=O)N3CCCCC3)cs2)cc1,"inconclusive [cytotoxic, single point]",
CN(C)/C=C/c1c([N+](=O)[O-])c2ccc(O)cc2n1-c1ccccc1,"inconclusive [cytotoxic, partial curve]",
CC(=Nc1ccccc1)C1=C(O)C(Cc2ccccc2)NC1=O (stereo unspecified),active: 0.58 µM,
CC(C)NC(=O)c1ccc(COc2cc(Cl)ccc2Cl)o1,"inconclusive [cytotoxic, single point]",
COc1cc2c(C(=O)N3CCN(c4cccc(Cl)c4)CC3)cn(C)c(=O)c2cc1OC,"inconclusive [cytotoxic, single point]",
COc1ccc(-c2cc(NC(C)=O)c3ncc(-c4ccc(OC)c(OC)c4)n3c2)c(OC)c1,"inconclusive [cytotoxic, single point]",
Cc1nccn1CC(O)Cn1c2ccccc2c2ccccc21 (stereo unspecified),"inconclusive [cytotoxic, single point]",

SMILES,Potency,"activity, negative = less viability"
OC1(c2ccc(Br)cc2)CCNCC1,active: 22.4 µM,
O=C(Oc1ccc(F)cc1)c1cccnc1,inactive,
COc1ccc(N2C(=O)CS/C2=N\C(=S)Nc2ccccc2)cc1,,inconclusive: -1.26% [cytotoxic]
CCn1cc(C(=O)OCC(=O)c2cc(C)n(-c3ccccc3F)c2C)c(=O)c2ccc(C)nc21,"inconclusive [cytotoxic, single point]",
O=c1c(Cl)c(NCCCO)cnn1-c1nc2ccccc2[nH]1,active: 13 µM,
Clc1ccc(C[n+]2cc(-c3ccccc3)n3c2CCCCC3)c(Cl)c1,active: 14.6 µM,
CCOC(=O)C1(CC2CCCCO2)CCN(Cc2nc3ccccc3nc2C)CC1 (stereo unspecified),,inconclusive: -2.01% [cytotoxic]
COc1ccc(/C=C/C(=O)NCc2cccnc2)cc1,inactive,
Cc1[nH]nc(-c2ccc(OCc3cnn(-c4ccccc4)c3)cc2O)c1Oc1ccccc1F,"inconclusive [cytotoxic, partial curve]",
O=C(C1=C[C@H](c2coc3ccccc3c2=O)C[C@H](OCCCCO)O1)N1CCN(Cc2ccc3c(c2)OCO3)CC1,inactive,
COc1ccc(CN(C)C[C@H]2Oc3c(NC(=O)Nc4ccccc4)cccc3C(=O)N([C@H](C)CO)C[C@@H]2C)cc1,inactive,
COCCNC(=O)C1CCCN(Cc2ccc(-c3ccccc3)cc2)CC1 (stereo unspecified),,inconclusive: 5.96%
O=C(CSc1nnc(-c2ccncc2)o1)NC1C2CC3CC(C2)CC1C3 (stereo unspecified),inactive,
CCOC(=O)C1C(C(C)=O)=C(c2ccccc2)c2ccccc2N1S(=O)(=O)C(F)(F)F (stereo unspecified),inactive,
COc1cc(/C=N/Nc2nc(C)nc3c2cnn3-c2ccccc2)ccc1O,"inconclusive [cytotoxic, full curve]",
NNC(=O)c1sc(-c2ccc(Cl)cc2)cc1N,inactive,
CSc1ccc(-c2sc(Nc3ccccc3)n[n+]2-c2ccc(F)cc2)cc1,inactive,
CCn1c(SCC(=O)c2ccc3c(c2)Cc2ccccc2-3)nnc1-c1ccc(N)cc1,"inconclusive [cytotoxic, single point]",
CCCCc1c(-c2ccccc2OC)ncn1C1CCCC1,"inconclusive [cytotoxic, single point]",
COc1ccc(-n2nnnc2-c2cccc(OC)c2)cc1,"inconclusive [cytotoxic, full curve]",
O=C(Cn1cnc2c(cnn2-c2ccccc2)c1=O)NCc1ccccc1,"inconclusive [cytotoxic, full curve, poor fit]",
Cc1nc2ncnn2c(N2CCCC(C(=O)Nc3ccc4c(c3)CCC4)C2)c1C (stereo unspecified),"inconclusive [cytotoxic, single point]",
CCOC(=O)C1=CC[C@@H](c2ccncc2)N(S(=O)(=O)c2ccc(C)cc2)C1,"inconclusive [cytotoxic, single point]",
